The whole screen tested about 310,000 compounds, of which about 2,200 (0.71%) showed an effect of 50% or more. Effects have a minus sign here. Some of the results follow.
target: human ether-à-go-go-related gene (hERG) potassium channel (human, UniProt Q12809); assay: primary screen, population patch clamp on CHO cells stably expressing hERG
Sequence (Q12809 whole entry, looked up): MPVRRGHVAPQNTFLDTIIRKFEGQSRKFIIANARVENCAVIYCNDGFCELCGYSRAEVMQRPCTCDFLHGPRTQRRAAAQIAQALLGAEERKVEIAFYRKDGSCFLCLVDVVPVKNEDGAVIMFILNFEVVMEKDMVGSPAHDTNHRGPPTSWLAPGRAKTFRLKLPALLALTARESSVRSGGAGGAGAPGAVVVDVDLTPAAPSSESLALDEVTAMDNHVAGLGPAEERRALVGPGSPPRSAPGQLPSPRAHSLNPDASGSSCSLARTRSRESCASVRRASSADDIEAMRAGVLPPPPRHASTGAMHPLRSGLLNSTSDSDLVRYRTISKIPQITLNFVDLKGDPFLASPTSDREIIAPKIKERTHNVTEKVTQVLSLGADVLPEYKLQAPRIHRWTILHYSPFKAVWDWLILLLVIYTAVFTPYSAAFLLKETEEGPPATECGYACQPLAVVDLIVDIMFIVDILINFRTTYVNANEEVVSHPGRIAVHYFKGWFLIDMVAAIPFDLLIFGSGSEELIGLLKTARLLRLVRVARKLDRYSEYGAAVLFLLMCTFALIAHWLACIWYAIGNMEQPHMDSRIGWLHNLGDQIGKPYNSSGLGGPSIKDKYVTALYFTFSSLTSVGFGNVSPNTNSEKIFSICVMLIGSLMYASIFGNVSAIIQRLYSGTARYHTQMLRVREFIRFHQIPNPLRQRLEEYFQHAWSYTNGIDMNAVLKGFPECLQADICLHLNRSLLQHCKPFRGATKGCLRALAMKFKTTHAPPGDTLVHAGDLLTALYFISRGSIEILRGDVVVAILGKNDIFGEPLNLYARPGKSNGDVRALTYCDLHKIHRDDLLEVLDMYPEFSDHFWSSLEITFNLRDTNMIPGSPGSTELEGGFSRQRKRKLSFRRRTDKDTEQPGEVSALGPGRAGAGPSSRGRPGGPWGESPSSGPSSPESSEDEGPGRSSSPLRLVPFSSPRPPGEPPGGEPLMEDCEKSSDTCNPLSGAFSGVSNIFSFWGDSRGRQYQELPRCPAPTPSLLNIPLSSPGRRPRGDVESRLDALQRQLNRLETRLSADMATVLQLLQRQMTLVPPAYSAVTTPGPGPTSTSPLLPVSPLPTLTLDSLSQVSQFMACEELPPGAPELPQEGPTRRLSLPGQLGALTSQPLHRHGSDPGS

Structure (SMILES)	hERG current change (%, negative = inhibition) at 1uM [%]
CN(CC(=O)Nc1c(Cl)cccc1Cl)C(=O)c1cccc(S(=O)(=O)NCc2ccccc2)c1	14.9
CCN(C(=O)COC(=O)Cn1cnc2c1c(=O)n(C)c(=O)n2C)C1CCS(=O)(=O)C1 (stereo not drawn)	13.4
CCN(CCn1cccn1)C(=O)CC1C(=O)NCCN1Cc1ccc(OC)c(OC)c1 (stereo not drawn)	2.76
Cc1ccc(C(=O)n2nc(-c3cccnc3)nc2N)cc1	16.7
CC(C)(C)OC(=O)N1CCN(C(=O)OCC2c3ccccc3-c3ccccc32)CC1C(=O)O (stereo not drawn)	18.6
O=C(COc1ccc(Br)cc1)Nc1ccc(Cc2ccncc2)cc1	-2.24
CC(=O)NC1C(=O)N=C(SCC(=O)Nc2cccc(Cl)c2)NC1=O (stereo not drawn)	2.94
CC(C)C(=O)Nc1nnc(CCN(CCc2nnc(NC(=O)C(C)C)s2)[N+](=O)[O-])s1	5.05
CC(C)CNC(=O)COc1ccccc1[N+](=O)[O-]	10.4
COc1ccc(CNC(=O)/C=C/c2ccco2)cc1OC	10.2
CN(C)C(=O)Oc1ccc2ccccc2c1Cl	-4.25
COc1ccccc1C(=O)N(NC(=O)Oc1ccccc1)C(C)(C)C	12.2
CN1CCN(CCNC(=O)Nc2ccc([N+](=O)[O-])cc2)CC1	10.7
Cc1ccc(C(=O)N/N=C/c2c[nH]c3ccccc23)o1	14.4
O=C(Nc1ccc2c(c1)oc1ccccc12)N1CCOCC1	-5.38
CC(C)CCN1C(=O)c2ccc(C(=O)Nc3ccccn3)cc2C1=O	6.24
COc1ccc(OC)c(C(=O)NC(CC(N)=O)c2ccc(N3CCC(N4CCCCC4)CC3)c([N+](=O)[O-])c2)c1 (stereo not drawn)	2.16
COc1ccc(N=C2NC(=O)/C(=C/C=C/c3ccccc3)S2)cc1	18
CC1=C(C(=O)Nc2cccc(C(=O)NC3CCCC(C)C3C)c2)SCCO1 (stereo not drawn)	15.3
Cc1cccc(-n2ncc3c(N(CCO)CCO)ncnc32)c1	17.2
CC(C)c1cc(C(C)C)c(S(=O)(=O)NNC(=O)c2ccncc2)c(C(C)C)c1	5.32
Cn1c(-c2ccc3ccccc3n2)nc2cnccc21	4.37
Cc1ccc(C2=CC(=O)C[C@H](c3ccc(F)cc3)C2)cc1	14.5

Structure (SMILES)	hERG current change (%, negative = inhibition) at 1uM [%]
COCCCn1nnnc1SCC(=O)Nc1ccc2c(c1)OCCO2	4.31
O=C(c1cc(Br)ccc1Cl)N1CCN(c2ccc(N3CCOCC3)nn2)CC1	5.71
C/C(=N/NC(=O)c1ccncc1)c1ccc(NC(=O)c2ccc(Cl)cc2Cl)cc1	9.64
Cc1ccc(OCCn2cnc(Cl)c2Cl)cc1	11.8
COC(=O)c1c(C)oc(C)c1S(=O)(=O)NCC1CC1	1.85
CCOC(=O)c1c(C)[nH]c(C(=O)COC(=O)/C=C/c2cccc(OC)c2OC)c1C	5.33
N/C(=N\OC(=O)COc1ccccc1)c1ccncc1	9.62
O=C(NNC(=O)C1CC1c1ccccc1)c1cccc([N+](=O)[O-])c1 (stereo not drawn)	-2.23
COc1cc(/C=C2\SC(c3ccc(C)cc3)=NC2=O)cc(OC)c1O	16.2
CCCN(CCC)S(=O)(=O)c1ccc(C)cc1	9
CCCc1nc(-c2ccc(-c3ccc(F)cc3)cc2)no1	9.29
COc1cc(C)c(S(=O)(=O)NCc2ccc3c(c2)OCO3)cc1C	5.39
CCOc1ncccc1C(=O)Nc1ccc(-c2cn3ccsc3n2)cc1	7.42
Nc1cc(N)nc(CS)n1	8.73
S=c1[nH]ccn1-c1cccc(Cl)c1Cl	15.8
C/C(=N/NC(=O)C(=O)N/N=C(/C)c1ccccc1)c1ccccc1	12.7
Cl.O=C(Cc1ccc(Cl)cc1)NCCN1CCCC1	-7.67
COc1ccccc1NS(=O)(=O)c1ccc(C)c(NC(=O)NCCCl)c1	-3.74
S=C(Nc1ccccc1)N1CCCN1c1ccccc1	20.1
Cn1cc(CN2CCN(c3ccccc3)CC2)c2ccccc21	-12.4
CC(=O)/C(N=Nc1ccc(SC(F)F)cc1)=C(\C)O	7.35
COc1ccccc1N1CCN(Cc2ccc(OC)c(OC)c2OC)CC1	-10.5
CCOC(=O)c1c(C)[nH]c(C(=O)/C(C#N)=C/c2ccc(OC(F)F)c(OC)c2)c1C	18.6

Structure (SMILES)	hERG current change (%, negative = inhibition) at 1uM [%]
Cc1ccc(-c2cc(C(=O)O)n[nH]2)o1	12.5
Cc1ccccc1NCC(=O)N/N=C\c1ccc2c(c1)OCO2	9.17
COCCCNC(=O)c1c[nH]c2ccc(S(=O)(=O)N3CCC4(CC3)OCCO4)cc2c1=O	15.1
O=C(CCN1C(=O)c2ccccc2C1=O)Nc1ccc(-c2nc3ccccc3s2)cc1	23
Cc1ccccc1NC(=O)CSCCO	7.27
CC(Cc1cccs1)NC(=S)Nc1ccc(Cl)cc1 (stereo not drawn)	10.9
CN(C(=O)CSc1ccccc1C(=O)O)C1CCCCC1	-5.12
CCNC(=O)COC(=O)/C=C/c1c(C)nn(Cc2cccc(OC)c2)c1Cl	13.7
c1csc(-c2cn3ccc4ccccc4c3n2)c1	12
Br.C=CCN1CCc2c(cc(O)c(O)c2Cl)C(c2ccccc2)C1 (stereo not drawn)	-12.2
CN(C)S(=O)(=O)c1cccc(NC(=O)c2ccc(N3CCOCC3)c([N+](=O)[O-])c2)c1	12.1
CCOCCCNC(=O)CSCc1nc(-c2ccc(SC)cc2)oc1C	9.11
O=C(O)c1cc(Oc2ccc(C(F)(F)F)cc2Cl)ccc1[N+](=O)[O-]	16
Cc1nc(Oc2ccc(Cl)cc2)c2oc3ccccc3c2n1	9.34
O=C(Cc1cc(=O)[nH]c(=O)[nH]1)NCCN1CCOCC1	8.01
COc1ccc(Cl)cc1C(=O)NCc1cnn(C)c1C	3.02
CCOc1ccc(CCNC(=O)CN2C(=O)CCSc3ccccc32)cc1OCC	7.66
CCOC(=O)C1CCN(C(=O)c2ccc3c(c2)S(=O)(=O)c2ccccc2C3=O)CC1	-12.7
CSc1ncccc1C(=O)Nc1cccc(C)n1	-4.84
COc1ccc(NC(=O)c2ccc(OC)c(S(=O)(=O)N3CCCCC3C)c2)cn1 (stereo not drawn)	4.14
COc1cc(C(C(=O)NC2CCCC2)N(Cc2ccco2)C(=O)c2snc(C(N)=O)c2N)cc(OC)c1OC (stereo not drawn)	2.71
O=C(COC(=O)c1cc2ccccc2o1)NCc1ccco1	9.22
O=CC1=C(N2CCOCC2)/C(=C\c2ccccc2)CC1	20.8

Structure (SMILES)	hERG current change (%, negative = inhibition) at 1uM [%]
O=C(NNC(=O)c1ccccc1OCc1ccc(F)cc1)c1ccccc1O	25.3
Cn1c(SCCCC(=O)c2ccc(Br)cc2)nnc1-c1ccncc1	-51.1
Cc1ccc2c(c1)OC(=O)CC2c1ccccc1 (stereo not drawn)	3.63
COCCN(C(=O)CSc1nc(N)cc(=O)[nH]1)c1c(N)n(Cc2ccccc2)c(=O)[nH]c1=O	7.66
Cc1ccc(-n2c(C)cc(C(=O)CN3C(=O)C(=O)N(C4CCCC4)C3=O)c2C)cc1	7.74
S=c1[nH]nc(-c2cccnc2)n1-c1ccc2c(c1)OCCO2	14.9
COc1cccc2cc(S(=O)(=O)c3ccccc3)c(=Nc3ccc4c(c3)OCCO4)oc12	8.49
COC(=O)c1cc2ccccc2c(-c2c(OC)c(C(=O)OC)cc3ccccc23)c1OC	8.13
Cc1ccc(NC(=O)Cn2nnc(C(=O)NCc3cccs3)c2N)cc1F	15.9
CC(Sc1ccc(Cl)cc1)C(=O)Nc1ccccc1C(=O)N1CCOCC1 (stereo not drawn)	3.5
Cc1ccc(CCNC(=O)CN(c2cc(C)cc(C)c2)S(=O)(=O)c2c(C)noc2C)cc1	15.2
O=C(Nc1ccc(F)cc1)c1cccnc1	11.7
C[C@H]1CC[C@]2(O[C@H](CCO)C[C@@H](O)[C@@H]2O)O1	10.7
O=C(Nc1ccc(-c2ccc3nncn3n2)cc1)c1ccc(Br)o1	-1.44
O=C(N/N=C/c1cc(Br)ccc1OC(=O)c1ccc(Br)cc1)c1ccncc1	7.9
CCCOc1ccc(C(=O)NCCN2CCOCC2)cc1.Cl	25
C/C(N)=C(/C#N)C(=O)COC(=O)CNS(=O)(=O)c1ccc(F)c(F)c1F	12.6
CCC(C)(C(=O)NC1CCCCC1)N(Cc1ccco1)C(=O)CC1NC(=O)NC1=O (stereo not drawn)	8.75
Oc1ccc(Cl)cc1/C=N/c1nc2ccccc2[nH]1	12.3
Cc1ccc(S(=O)(=O)N2CCCCC2)cc1C(=O)NCCN1CCOCC1	9.5
Cc1nc(CC(C)C)cc(C(=O)N2CCCC(CNS(=O)(=O)c3cccs3)C2)n1 (stereo not drawn)	5.44
